From PubChem BioAssay AID1508623 (National Center for Advancing Translational Sciences (NCATS), 2021)
Among all 48,000 compounds or so, about 450 (0.94%) were called active. Inconclusive results (about 19%) are left out. Calls come from the whole dose curve; as a rule, active = well fitted inhibition curve with a large enough effect; inconclusive = small, poorly fitted or top-dose-only effect; inactive = no such curve, though single readings can be large or run the other way. Some of the results follow.

Assay: Primary qHTS for Identification of Small Molecule Inhibitors of Huntingtin Promoter Activity; note: nearly all actives have a fitted effect of over 50% in size
Conditions: HEK293 HTT promoter firefly luciferase reporter (activity 0% = vehicle and -100% = no light), 24 h; series mostly up to 57.5 µM; activity change, negative = inhibition: at the top concentration
In short: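 Luminescence was read after Dual-Glo reagent and a 10 min room-temperature incubation. Values were normalized to vehicle (0% activity) and zero RLU (-100% activity). Reporter HEK293 cells had been exposed to compounds (up to 57.5 uM final) for 24 h.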

Activity change, negative = inhibition, inactive:
COc1ccc(NC(=O)CCNS(=O)(=O)c2cccc3nsnc23)cc1Cl -5.25%
CCn1c(=O)cc(OCC(=O)N2CCN(c3ccc(OC)cc3)CC2)c2ccccc21 -15.3%
CCCS(=O)(=O)N1CC(=O)N(c2ccc(C)cc2)C(C)(C(=O)NC2CCCCCC2)C1 (stereo not drawn) -8.11%
CCOc1ccccc1CN1CCc2nc(Nc3ccc4c(c3)OCCO4)ncc2C1 -23.9%
O=C(CSc1nc(Nc2ccc(F)cc2)c2ccccc2n1)c1ccc(F)cc1 -23.9%
CCOc1ccc(NC(=O)Cn2c(=O)c(CNc3ccc(CC)cc3)cc3cc4c(cc32)OCO4)cc1 -18.3%
Cc1cc(C)c2nc(NC(=O)c3ccc(S(=O)(=O)N4CCc5ccccc54)cc3)sc2c1 -13.3%
Cc1ccc(CNc2ncnc3onc(-c4ccc(F)cc4)c23)cc1 -15.7%
COc1cc(OC)c(NC(=O)N2CCCn3nc(C)cc32)cc1Cl -7.17%
COc1ccc(-c2nnc(SCC(=O)NC3CCCCC3)nc2-c2ccc(OC)cc2)cc1 -10.1%
COCCn1c(C)cc(O)c(C(c2ccccc2)N2CCN(c3ccccc3)CC2)c1=O (stereo not drawn) 0.393%
O=C(Cn1c(=O)n(Cc2ccc3c(c2)OCO3)c(=O)c2oc3ccccc3c21)Nc1ccccc1F -0.393%
CCc1cccc(NC(=O)CN2Cc3ccccc3C2=O)c1 -14.6%
CCOc1ccc(C2CC(=O)Nc3cc4c(cc32)OCO4)cc1OC (stereo not drawn) -31.4%
CCOC(=O)c1c(S(=O)(=O)N2CCCC(C(=O)Nc3ccccn3)C2)c(C)n(C)c1C (stereo not drawn) -2.51%
CC(=O)N1CCc2c(sc3c2c(=O)n(-c2ccc(C)cc2)c(=O)n3Cc2c(F)cccc2Cl)C1 -19.3%
Cc1ccc(CNC(=O)C2CCN(S(=O)(=O)c3ccc(F)cc3)CC2)cc1 -19.2%
COc1ccccc1CNC(=O)c1cccn1-c1nnc(N2CCCCC2)s1 -18.2%
COC(=O)c1c(NC(=O)Cc2coc3cc(C)ccc23)sc2c1CCCC2 -16.6%
CCCOc1cccc(C2c3c(oc4ccccc4c3=O)C(=O)N2c2nncs2)c1 (stereo not drawn) -7.99%
Cc1ccc2cccc(NC(=O)COc3ccccc3Cl)c2n1 -4.85%
Cc1ccc(C)c(Cn2c(CCCNC(=O)C3CCCCC3)nc3ccccc32)c1 -27.5%
Cc1nc(-c2cccc(NC(=O)Nc3ccccc3C(F)(F)F)c2)no1 -7.53%
CCc1ccc(-n2c(=O)c3sc4ccccc4c3n(CC(=O)N3CCCC3)c2=O)cc1 -9.81%
O=C(CSc1nc2ccsc2c(=O)n1Cc1ccccc1Cl)NCc1ccc(F)cc1 -24.9%
CCc1ccc(NC(=O)CCCc2nnc3n(CC(C)C)c(=O)c4sccc4n23)cc1 -25.9%
O=C(Nc1c2c(nn1-c1ccc(Cl)cc1)CS(=O)(=O)C2)c1cccc(F)c1 -24.1%
COC(=O)c1ccc(C2c3c(-c4ccccc4O)n[nH]c3C(=O)N2Cc2ccncc2)cc1 (stereo not drawn) -8.39%
CC(C)c1nn2c(=O)cc(COC(=O)c3ccccc3NC(=O)COc3ccccc3)nc2s1 -10.7%
Cc1nnc(NC(=O)CSc2nccn2Cc2ccc(F)cc2)s1 -11.7%
CC(=O)Nc1ccc(S(=O)(=O)NCCc2cn3ccsc3n2)cc1 -20.8%
CCC(=O)N1CCc2cc(OC)c(OC)cc2C1COc1ccccc1OC (stereo not drawn) -14.6%
Cc1nnc(NC(=O)c2nc(SCc3ccccc3F)ncc2Cl)s1 -11.2%
O=C(NCc1ccccc1)C(=O)Nc1ccc2nc3n(c(=O)c2c1)CCCCC3 -24.1%
COc1nc(C)cnc1NS(=O)(=O)c1cccnc1-c1ccc(-c2nnco2)cc1 8.72%
CCc1cc(C(=O)NCc2ccccc2)no1 42.1%
Cc1ccc(CN2COc3ccc4c(-c5ccccc5)cc(=O)oc4c3C2)cc1 -12.4%
NC(=O)c1ncn([C@@H]2O[C@H](CO)[C@@H](O)[C@@H]2O)c1O -7.02%
Cc1cc(C)nc(-n2nc(C)c3c2N(C)C(=O)CC3c2ccc(Cl)cc2)n1 (stereo not drawn) -11%
Cc1c(C(=O)Nc2cccc(Cl)c2)oc2ccc(S(=O)(=O)N3CCCCCC3)cc12 -24.9%
Cc1cc(-c2ccc(S(=O)(=O)Nc3ccccc3F)s2)on1 -35.4%
O=C(CN1C(=O)COc2ccc(S(=O)(=O)NC3CCCC3)cc21)Nc1ccc(Cl)cc1 -0.0219%
CCOC(=O)c1[nH]c(C)c(C(=O)NC(CC)Cc2ccccc2)c1C (stereo not drawn) -24.5%
O=C(Nc1cccc(-c2cn3cccnc3n2)c1)c1cc(Br)ccc1Cl -13.1%
Cc1ccc(C)c(NC(=O)Cn2c(=O)n(CC3CCCO3)c(=O)c3ccccc32)c1 (stereo not drawn) -10.6%
CCN1CCN(c2ncnc3c2cnn3-c2ccc(C)c(C)c2)CC1 -8.96%
CC(=O)Nc1ccc(NC(=O)CSc2nc3ccccc3nc2N2CCCCC2)cc1 -6.74%
Cn1c(-n2cccc2)c(-c2c(-c3ccccc3)[nH]c3c2c(=O)[nH]c(=O)n3C)c(=O)[nH]c1=O -7.94%
Cc1ccc2c(c1)N(CC(=O)NCCc1ccc(Cl)cc1)C(=O)c1cccnc1O2 -23%
COc1cccc(CNC(=O)c2ccc3c(c2)nc2n3CCOC2)c1 0.687%
Cc1ccc(-c2nnn3c2nc(NCC(C)c2ccccc2)c2ccccc23)cc1 (stereo not drawn) 32.4%
Cc1oc(=O)oc1CN1CCN(c2cc3c(cc2F)c(=O)c(C(=O)O)c2n3C(C)S2)CC1 (stereo not drawn)
CCN(Cc1ccccc1)C(=O)CN1C(=O)COc2ccc(S(=O)(=O)NC3CCCC3)cc21 -11.7%
CCOc1ccc(CNC(=O)c2ccc(CS(=O)Cc3ccc(Cl)cc3)o2)cc1 (stereo not drawn) -4.44%
CCc1ccc2oc(C(=O)Nc3sc4c(c3C(=O)NC)CCCC4)cc(=O)c2c1 -1.3%
CCOc1ccc(C(=O)Nc2cccc(OCc3cc(=O)n4cc(C)sc4n3)c2)cc1 9.89%
O=C(Nc1ccc(Cl)cc1F)c1cc(S(=O)(=O)NCc2ccc3c(c2)OCO3)ccc1F -19%
CN(C)CCn1c2c(c(SCC(=O)Nc3ccc(F)cc3F)nc1=O)CCC2 -15.2%
O=C(NCCc1ccccc1)c1ccc(CSc2nc3ccncc3n2Cc2ccc(F)cc2)cc1 -26.3%
CCCCn1cc(S(=O)(=O)c2cccc(C)c2)c(=O)c2cc(F)c(N3CCOCC3)cc21 -11.6%
Cc1ccccc1OC(=O)CSc1nnc(-c2cccs2)o1 -2.28%
CCOC(=O)c1c(S(=O)(=O)N2CCCC(C(=O)N3CCN(c4ccccc4)CC3)C2)c(C)n(C)c1C (stereo not drawn) -19.8%
COc1ccc(-c2nc3ccccc3o2)cc1NC(=O)COc1ccc(C(C)(C)C)cc1 9.3%
O=[N+]([O-])c1ccc(C(c2sc3nc(-c4ccco4)nn3c2O)N2CCN(c3cccc(Cl)c3)CC2)cc1 (stereo not drawn) -17%
CCOC(=O)c1cc2c(=O)n3ccccc3nc2n(CC2CCCO2)c1=NC(=O)c1ccc(C)cc1 (stereo not drawn) -18.7%
CCc1cccc(NC(=O)Cn2nc(-c3cc(C)ccc3C)ccc2=O)c1 -14%
N=C(N=C(N)N)N1CCOCC1 -1.06%
CC(Oc1ccccc1Cl)C(=O)N1CCN(CCc2ccccn2)CC1 (stereo not drawn) -12.8%
O=C(CN1C(=O)COc2ccc(S(=O)(=O)N3CCOCC3)cc21)N1CCN(c2ccc(F)cc2)CC1 -6.98%
CC(Sc1nc(=O)cc(N)n1CCc1ccccc1)C(=O)Nc1ccccc1C#N (stereo not drawn) 16.1%
COc1ccc(OC)c(NC(=O)CN2C(=O)CCc3cc(S(=O)(=O)N4CCCCC4)ccc32)c1 -22.9%
O=C(NC1CCCCC1)c1ccc2c(c1)N(Cc1ccc(Cl)cc1)C(=O)c1ccccc1S2(=O)=O -10.4%
CC(=O)N1c2c(cc(Br)cc2S(=O)(=O)N2CCN(c3cccc(Cl)c3)CC2)CC1C (stereo not drawn) -12.8%
CC(=O)c1cccc(NS(=O)(=O)c2ccc3c(c2)NC(=O)CC(=O)N3)c1 -12.9%
Cc1ccc(Cl)cc1NC(=O)Cn1c(=O)n(Cc2ccc(C(=O)NCc3ccc4c(c3)OCO4)cc2)c(=O)c2ccccc21 -12.4%
CCN(Cc1ccccc1)C(=O)c1cc2c(s1)-c1c(C)cccc1OC2 -2.42%
CCN1CCN(c2c(S(=O)(=O)c3ccc(C)c(C)c3)cnc3ccc(F)cc23)CC1 -18.7%
O=c1c2cnn(-c3ccc(Cl)cc3)c2ncn1Cc1cccc(C(F)(F)F)c1 -7.22%
COc1ccc(NC(=O)CSc2cc(-c3ccccc3)nc(C)n2)cc1 -18.6%
CCOc1ccc(-c2csc(/C(C#N)=C/c3ccc(Br)cc3)n2)cc1 -2.37%
CCC(=O)Nc1ccc2nc(SCCOc3ccc(C)cc3)sc2c1 -5.62%
Cc1nc([N+](=O)[O-])cn1-c1ccc([N+](=O)[O-])cc1 -2.32%
CCS(=O)(=O)c1ncc(N(Cc2ccc(F)cc2)Cc2ccco2)c(C(=O)Nc2cc(C)ccc2C)n1 -28.7%
CCOC(=O)C1CCN(C(=O)CN2c3ccc(CC)cc3-c3ccccc3S2(=O)=O)CC1 -10.2%
CCCN(CCC)C(=O)Cn1c(=O)n(-c2ccc(OC)cc2)c(=O)c2ccc(C(=O)NCc3ccc(C)cc3)cc21 -11.9%
CCCn1c(NCc2ccc(N(CC)CC)cc2)nc2ccccc21 -20.8%
CN1CCN(c2nc3c(S(=O)(=O)c4ccccc4)nnn3c3ccsc23)CC1 -4%
Cc1ccc(-n2c(SCC(=O)Nc3cccc(C)c3)nc3c(oc4ccccc43)c2=O)cc1 -7.26%
CO[C@@H]1[C@@H](O[C@@H]2O[C@H](C)[C@@H](O[C@H]3C[C@@](C)(O)[C@@H](O)[C@H](C)O3)[C@H](N(C)C)[C@H]2O)[C@@H](CC=O)C[C@@H](C)[C@@H](O[C@@H]2CC[C@H](N(C)C)[C@@H](C)O2)/C=C/C=C/C[C@@H](C)OC(=O)C[C@H]1OC(C)=O -2.48%
CCOC(=O)C1CCCN(C(=O)c2ccc(-n3ccc4ccccc43)s2)C1 (stereo not drawn) -22.1%
COc1cccc(-c2ccc3c(N)c(C(=O)Nc4cc(F)ccc4F)sc3n2)c1 24.5%
Cc1cc(OI)c(C(C)C)cc1-c1cc(C(C)C)c(OI)cc1C 10.7%
Cc1ccc(NC(=O)Cn2cc(S(=O)(=O)N3CCC(C)CC3)c3ccccc3c2=O)c(Br)c1 -26.6%
